# Laboratory results taken from the supplement of paper PMC8728848.
# The other results are listed elsewhere or left out.
# B1: CC1G-11630 (Coprinopsis cinerea), A8P462 (protein)
# chain: MTTEAKIKLKAVVYWELVFDYDNSSNTGEITQSYTVKISQTSTRSTFASEVSTTTIDTLTKNNQEVDVGASYGAISANVSASWEHSEEVNNMLEKTTQTSTEDTYTVETEETRSYTIGPGGMLSLFQKHFSGPGMHVAFDVFTTDLELAKERTEIDIDVDVEAIRFVREIRVVYTDIMSEAPGDHVREINGKNPDINYGFNGKFVWLVPEQTRKTAQALTNVEFVSQAESDDRYWDLAAGAGGSNRYLIPVYDTNNKDKIYELALWRSDSYITHDKVKAAGWSGTTGDINSGRGGTYLNLVWKTRHAY
# Legend:
# Assay in all cases: glycan array binding signal (z-score within array); higher = stronger binding
# Conditions in all cases: glycan notation: IUPAC condensed, linker removed
# [1] = target: Fuc(a1-2)Gal(b1-4)[Fuc(a1-3)]GlcNAc
# Outline: (§1)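 Columns mapping to the same glycan were averaged after glycan names were converted to IUPAC-condensed notation. The data come from 3228 arrays in the Consortium for Functional Glycomics database, limited to those with an available protein sequence. Binding is reported as a within-array Z-score averaged across arrays of one protein sequence and across linkers.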
# [2] = target: Fuc(a1-2)Gal(b1-4)[Fuc(a1-3)]GlcNAc(b1-2)Man(a1-3)[Fuc(a1-2)Gal(b1-4)[Fuc(a1-3)]GlcNAc(b1-2)Man(a1-6)]Man(b1-4)GlcNAc(b1-4)[Fuc(a1-6)]GlcNAc
# Outline: as §1
# [3] = target: Fuc(a1-2)Gal(b1-4)[Fuc(a1-3)]GlcNAc(b1-2)[Fuc(a1-2)Gal(b1-4)[Fuc(a1-3)]GlcNAc(b1-4)]Man(a1-3)[Fuc(a1-2)Gal(b1-4)[Fuc(a1-3)]GlcNAc(b1-2)Man(a1-6)]Man(b1-4)GlcNAc(b1-4)GlcNAc
# Outline: as §1
# [4] = target: Fuc(a1-2)Gal(b1-4)[Fuc(a1-3)]GlcNAc(b1-3)Gal(b1-4)[Fuc(a1-3)]GlcNAc
# Outline: as §1
# [5] = target: Fuc(a1-2)Gal(b1-4)[Fuc(a1-3)]GlcNAc(b1-3)Gal(b1-4)[Fuc(a1-3)]GlcNAc(b1-3)Gal(b1-4)[Fuc(a1-3)]GlcNAc
# Outline: as §1
# [6] = target: Fuc(a1-2)Gal(b1-4)[Fuc(a1-3)]GlcNAc(b1-3)GalNAc
# Outline: as §1
# [7] = target: Fuc(a1-2)Gal(b1-4)[Fuc(a1-3)]GlcNAc(b1-3)[Neu5Ac(a2-6)Gal(b1-4)GlcNAc(b1-6)]Gal(b1-4)Glc
# Outline: as §1
# [8] = target: Fuc(a1-2)Gal3S(b1-4)GlcNAc
# Outline: as §1
# [9] = target: Fuc(a1-2)Gal6S(b1-3)GlcNAc
# Outline: as §1
# [10] = target: Fuc(a1-2)Gal6S(b1-3)GlcNAc6S
# Outline: as §1
# Fuc(a1-2)Gal6S(b1-4)Glc = target: Fuc(a1-2)Gal6S(b1-4)Glc
# Outline: as §1
# [11] = target: Fuc(a1-2)Gal6S(b1-4)Glc6S
# Outline: as §1
# Fuc(a1-2)[Gal(a1-3)]Gal = target: Fuc(a1-2)[Gal(a1-3)]Gal
# Outline: as §1
# [12] = target: Fuc(a1-2)[Gal(a1-3)]Gal(b1-3)GalNAc
# Outline: as §1
# [13] = target: Fuc(a1-2)[Gal(a1-3)]Gal(b1-3)GalNAc(b1-3)Gal(a1-4)Gal(b1-4)Glc
# Outline: as §1
# [14] = target: Fuc(a1-2)[Gal(a1-3)]Gal(b1-3)GlcNAc
# Outline: as §1
# [15] = target: Fuc(a1-2)[Gal(a1-3)]Gal(b1-3)GlcNAc(b1-2)Man(a1-3)[Fuc(a1-2)[Gal(a1-3)]Gal(b1-3)GlcNAc(b1-2)Man(a1-6)]Man(b1-4)GlcNAc(b1-4)GlcNAc
# Outline: as §1
# [16] = target: Fuc(a1-2)[Gal(a1-3)]Gal(b1-3)GlcNAc(b1-2)Man(a1-3)[Fuc(a1-2)[Gal(a1-3)]Gal(b1-3)GlcNAc(b1-2)Man(a1-6)]Man(b1-4)GlcNAc(b1-4)[Fuc(a1-6)]GlcNAc
# Outline: as §1
# [17] = target: Fuc(a1-2)[Gal(a1-3)]Gal(b1-3)GlcNAc(b1-3)GalNAc
# Outline: as §1
# [18] = target: Fuc(a1-2)[Gal(a1-3)]Gal(b1-3)GlcNAc(b1-6)GalNAc
# Outline: as §1
# [19] = target: Fuc(a1-2)[Gal(a1-3)]Gal(b1-4)Glc
# Outline: as §1
# [20] = target: Fuc(a1-2)[Gal(a1-3)]Gal(b1-4)GlcNAc
# Outline: as §1
# [21] = target: Fuc(a1-2)[Gal(a1-3)]Gal(b1-4)GlcNAc(b1-2)Man
# Outline: as §1
# [22] = target: Fuc(a1-2)[Gal(a1-3)]Gal(b1-4)GlcNAc(b1-2)Man(a1-3)[Fuc(a1-2)[Gal(a1-3)]Gal(b1-4)GlcNAc(b1-2)Man(a1-6)]Man(b1-4)GlcNAc(b1-4)GlcNAc
# Outline: as §1
# [23] = target: Fuc(a1-2)[Gal(a1-3)]Gal(b1-4)GlcNAc(b1-2)Man(a1-3)[Fuc(a1-2)[Gal(a1-3)]Gal(b1-4)GlcNAc(b1-2)Man(a1-6)]Man(b1-4)GlcNAc(b1-4)[Fuc(a1-6)]GlcNAc
# Outline: as §1
# [24] = target: Fuc(a1-2)[Gal(a1-3)]Gal(b1-4)GlcNAc(b1-3)GalNAc
# Outline: as §1
# [25] = target: Fuc(a1-2)[Gal(a1-3)]Gal(b1-4)GlcNAc(b1-3)[Fuc(a1-2)[Gal(a1-3)]Gal(b1-4)GlcNAc(b1-6)]GalNAc
# Outline: as §1
# [26] = target: Fuc(a1-2)[Gal(a1-3)]Gal(b1-4)GlcNAc(b1-6)GalNAc
# Outline: as §1
# [27] = target: Fuc(a1-2)[Gal(a1-3)]Gal(b1-4)[Fuc(a1-3)]Glc
# Outline: as §1
# [28] = target: Fuc(a1-2)[Gal(a1-3)]Gal(b1-4)[Fuc(a1-3)]GlcNAc
# Outline: as §1
# [29] = target: Fuc(a1-2)[Gal(a1-3)]Gal(b1-4)[Fuc(a1-3)]GlcNAc(b1-3)GalNAc
# Outline: as §1
# [30] = target: Fuc(a1-2)[Gal(a1-4)]Gal(b1-4)GlcNAc
# Outline: as §1
# [31] = target: Fuc(a1-2)[GalNAc(a1-3)]Gal
# Outline: as §1
# [32] = target: Fuc(a1-2)[GalNAc(a1-3)]Gal(b1-3)GalNAc(a1-3)[Fuc(a1-2)]Gal(b1-4)GlcNAc
# Outline: as §1
# [33] = target: Fuc(a1-2)[GalNAc(a1-3)]Gal(b1-3)GalNAc(b1-3)Gal(a1-4)Gal(b1-4)Glc
# Outline: as §1
# [34] = target: Fuc(a1-2)[GalNAc(a1-3)]Gal(b1-3)GlcNAc
# Outline: as §1
# [35] = target: Fuc(a1-2)[GalNAc(a1-3)]Gal(b1-3)GlcNAc(b1-2)Man(a1-3)[Fuc(a1-2)[GalNAc(a1-3)]Gal(b1-3)GlcNAc(b1-2)Man(a1-6)]Man(b1-4)GlcNAc(b1-4)GlcNAc
# Outline: as §1
# [36] = target: Fuc(a1-2)[GalNAc(a1-3)]Gal(b1-3)GlcNAc(b1-2)Man(a1-3)[Fuc(a1-2)[GalNAc(a1-3)]Gal(b1-3)GlcNAc(b1-2)Man(a1-6)]Man(b1-4)GlcNAc(b1-4)[Fuc(a1-6)]GlcNAc
# Outline: as §1
binder,measurement,setting,value
B1,glycan array binding signal (z-score),[1],-0.687
same,glycan array binding signal (z-score),[2],-0.485
same,glycan array binding signal (z-score),[3],1.01
same,glycan array binding signal (z-score),[4],-0.622
same,glycan array binding signal (z-score),[5],-0.497
same,glycan array binding signal (z-score),[6],0.411
same,glycan array binding signal (z-score),[7],-0.354
same,glycan array binding signal (z-score),[8],-0.605
same,glycan array binding signal (z-score),[9],-0.441
same,glycan array binding signal (z-score),[10],1.82
same,glycan array binding signal (z-score),Fuc(a1-2)Gal6S(b1-4)Glc,0.326
same,glycan array binding signal (z-score),[11],0.707
same,glycan array binding signal (z-score),Fuc(a1-2)[Gal(a1-3)]Gal,-0.113
same,glycan array binding signal (z-score),[12],-0.167
same,glycan array binding signal (z-score),[13],-0.296
same,glycan array binding signal (z-score),[14],0.172
same,glycan array binding signal (z-score),[15],-0.514
same,glycan array binding signal (z-score),[16],0.592
same,glycan array binding signal (z-score),[17],-0.115
same,glycan array binding signal (z-score),[18],-0.205
same,glycan array binding signal (z-score),[19],-0.429
same,glycan array binding signal (z-score),[20],-0.164
same,glycan array binding signal (z-score),[21],-0.591
same,glycan array binding signal (z-score),[22],-0.214
same,glycan array binding signal (z-score),[23],0.476
same,glycan array binding signal (z-score),[24],0.833
same,glycan array binding signal (z-score),[25],0.561
same,glycan array binding signal (z-score),[26],1.23
same,glycan array binding signal (z-score),[27],-0.641
same,glycan array binding signal (z-score),[28],-0.317
same,glycan array binding signal (z-score),[29],0.212
same,glycan array binding signal (z-score),[30],-0.763
same,glycan array binding signal (z-score),[31],-0.6
same,glycan array binding signal (z-score),[32],-0.196
same,glycan array binding signal (z-score),[33],-0.53
same,glycan array binding signal (z-score),[34],-0.752
same,glycan array binding signal (z-score),[35],-0.708
same,glycan array binding signal (z-score),[36],-0.174
